Assay results published in the supplement of paper PMC4967469.

Experiments:
Experiment in all cases: Viability of human cancer cell lines after 72 h of drug (GDSC screen)
Thapsigargin = compound: C/C=C(/C)C(=O)O[C@H]1C(C)=C2[C@H]([C@@H]1OC(=O)CCCCCCC)[C@@](C)(OC(C)=O)C[C@H](OC(=O)CCC)[C@@]1(O)[C@H]2OC(=O)[C@@]1(C)O [Thapsigargin]; details: top dose 0.512 µM; top dose inferred
Protocol: (§1)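 Human cancer cell lines in 384-well plates, medium with 10% serum, drug for 72 h over a 256-fold dose range (nine 2-fold or five 4-fold steps up to the top dose). Adherent lines were fixed and stained with the nucleic acid dye Syto60, suspension lines read with resazurin; signal relative to control wells, capped at 0 and 100%. One two-parameter sigmoid per drug and line, fitted in a mixed model over all curves with the slope shared within a line.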

QL-X-138 = compound: C=CC(=O)Nc1cc(-n2c(=O)ccc3cnc4ccc(-c5cn[nH]c5)cc4c32)ccc1C [QL-X-138]; details: top dose 10.24 µM; top dose inferred
Protocol: as §1

GSK269962A = compound: CCn1c(-c2nonc2N)nc2cnc(Oc3cccc(NC(=O)c4ccc(OCCN5CCOCC5)cc4)c3)cc21 [GSK269962A]; details: top dose inferred
Protocol: as §1

MPS-1-IN-1 = compound: COc1cc(N2CCC(O)CC2)ccc1Nc1cc(Nc2ccccc2S(=O)(=O)C(C)C)c2cc[nH]c2n1 [MPS-1-IN-1]; details: top dose 20 µM; top dose inferred
Protocol: as §1

(5Z)-7-Oxozeaenol = compound: COc1cc(O)c2c(c1)/C=C/C[C@H](O)[C@H](O)C(=O)/C=C\C[C@H](C)OC2=O [(5Z)-7-Oxozeaenol]; details: top dose 10 µM; top dose inferred
Protocol: as §1

CP466722 = compound: COc1cc2ncnc(-n3nc(-c4ccccn4)nc3N)c2cc1OC [CP466722]; details: top dose 16 µM; top dose inferred
Protocol: as §1

Zibotentan = compound: COc1nc(C)cnc1NS(=O)(=O)c1cccnc1-c1ccc(-c2nnco2)cc1 [Zibotentan]; details: top dose 20 µM; top dose inferred
Protocol: as §1

ABT-888 = compound: C[C@]1(c2nc3c(C(N)=O)cccc3[nH]2)CCCN1 [ABT-888]; details: top dose 5 µM; top dose inferred
Protocol: as §1

CMK = compound: Cc1ccc(-c2c(C(=O)CCl)n(CCCO)c3ncnc(N)c23)cc1 [CMK]; details: top dose 4 µM; top dose inferred
Protocol: as §1

ABT-869 = compound: Cc1ccc(F)c(NC(=O)Nc2ccc(-c3cccc4[nH]nc(N)c34)cc2)c1 [ABT-869]; details: top dose 1.024 µM; top dose inferred
Protocol: as §1

CHIR-99021 = compound: Cc1cnc(-c2cnc(NCCNc3ccc(C#N)cn3)nc2-c2ccc(Cl)cc2Cl)[nH]1 [CHIR-99021]
Protocol: as §1

Cytarabine = compound: Nc1ccn([C@@H]2O[C@H](CO)[C@@H](O)[C@@H]2O)c(=O)n1 [Cytarabine]; details: top dose 2 µM
Protocol: as §1

KU-55933 = compound: O=c1cc(-c2cccc3c2Sc2ccccc2S3)oc(N2CCOCC2)c1 [KU-55933]; details: top dose 10 µM
Protocol: as §1

[1] = top dose 2.5 µM, screen: GDSC drug entry 127
[2] = top dose 5 µM, screen: GDSC drug entry 1192
[3] = top dose 2.56 µM, screen: GDSC drug entry 154
[4] = top dose 10 µM, screen: GDSC drug entry 1241, top dose inferred

Cell Line	AUC (Thapsigargin)	IC50 (Thapsigargin)	AUC (QL-X-138)	IC50 (QL-X-138)	AUC (GSK269962A; [1])	IC50 (GSK269962A; [1])	AUC (GSK269962A; [2])	IC50 (GSK269962A; [2])	AUC (MPS-1-IN-1)	IC50 (MPS-1-IN-1)	AUC ((5Z)-7-Oxozeaenol)	IC50 ((5Z)-7-Oxozeaenol)	AUC (CP466722)	IC50 (CP466722)	AUC (Zibotentan)	IC50 (Zibotentan)	AUC (ABT-888)	IC50 (ABT-888)	AUC (CMK)	IC50 (CMK)	AUC (ABT-869)	IC50 (ABT-869)	AUC (CHIR-99021; [3])	IC50 (CHIR-99021; [3])	AUC (CHIR-99021; [4])	IC50 (CHIR-99021; [4])	AUC (Cytarabine)	IC50 (Cytarabine)	AUC (KU-55933)	IC50 (KU-55933)
DB (B-cell lymphoma, suspension)	0.201	0.00364 µM	0.745	3.58 µM	0.906	> 2.5 µM	0.747	1.77 µM	0.855	19.2 µM	0.707	2.61 µM	0.794	8.43 µM	0.957	> 20 µM	0.947	> 5 µM	0.983	> 4 µM	0.971	> 1.02 µM	0.972	> 2.56 µM	0.934	> 10 µM	0.649	0.342 µM	0.89	> 10 µM
DEL (lymphoid neoplasm, suspension)	0.302	0.0102 µM	0.427	0.422 µM	0.951	> 2.5 µM	0.95	> 5 µM	0.346	0.518 µM	0.754	2.74 µM	0.705	3.27 µM	0.992	> 20 µM	0.993	> 5 µM	0.789	1.37 µM	0.994	> 1.02 µM	0.994	> 2.56 µM	0.986	> 10 µM	0.974	> 2 µM	0.961	> 10 µM
DG-75 (Burkitt lymphoma, suspension)	0.896	> 0.512 µM	0.863	9.06 µM	0.955	> 2.5 µM	0.903	> 5 µM	0.943	> 20 µM	0.683	2.05 µM	0.813	8.8 µM	0.981	> 20 µM	0.983	> 5 µM	0.938	> 4 µM	0.987	> 1.02 µM	0.982	> 2.56 µM	0.944	> 10 µM	0.762	0.722 µM	0.832	6.53 µM
DMS-79 (small cell lung carcinoma, suspension)	0.95	> 0.512 µM	0.981	> 10.2 µM	0.982	> 2.5 µM	0.906	> 5 µM	0.986	> 20 µM	0.966	> 10 µM	0.93	> 16 µM	0.953	> 20 µM	0.987	> 5 µM	0.96	> 4 µM	0.973	> 1.02 µM	0.987	> 2.56 µM	0.986	> 10 µM	0.987	> 2 µM	0.986	> 10 µM
DMS-114 (small cell lung carcinoma, adherent)	0.871	> 0.512 µM	0.574	1.06 µM	0.975	> 2.5 µM	0.973	> 5 µM	0.926	> 20 µM	0.684	2.22 µM	0.907	> 16 µM	0.985	> 20 µM	0.985	> 5 µM	0.984	> 4 µM	0.985	> 1.02 µM	0.98	> 2.56 µM	0.971	> 10 µM	0.777	0.926 µM	0.979	> 10 µM
DND-41 (T-cell leukaemia, suspension)	0.261	0.00736 µM	0.477	0.559 µM	0.97	> 2.5 µM	0.864	3.55 µM	0.842	11.7 µM	0.585	1.03 µM	0.664	2.69 µM	0.98	> 20 µM	0.989	> 5 µM	0.831	2.13 µM	0.984	> 1.02 µM	0.98	> 2.56 µM	0.923	> 10 µM	0.835	1.1 µM	0.949	> 10 µM
DSH1 (bladder, adherent)	0.324	0.0106 µM	0.873	9.13 µM	0.883	2.48 µM	0.903	> 5 µM	0.975	> 20 µM	0.925	> 10 µM	0.859	12.3 µM	0.989	> 20 µM	0.988	> 5 µM	0.983	> 4 µM	0.982	> 1.02 µM	0.947	> 2.56 µM	0.988	> 10 µM	0.91	> 2 µM	0.988	> 10 µM
EB-3 (Burkitt lymphoma, suspension)	0.464	0.0251 µM	0.38	0.283 µM	0.98	> 2.5 µM	0.838	4.19 µM	0.84	17.2 µM	0.799	5.72 µM	0.695	3.91 µM	0.949	> 20 µM	0.983	> 5 µM	0.792	2.14 µM	0.98	> 1.02 µM	0.984	> 2.56 µM	0.926	> 10 µM	0.98	> 2 µM	0.984	> 10 µM
EC-GI-10 (oesophagus, adherent)	0.788	0.222 µM	0.989	> 10.2 µM	0.974	> 2.5 µM	0.926	> 5 µM	0.967	> 20 µM	0.71	2.43 µM	0.989	> 16 µM	0.988	> 20 µM	0.989	> 5 µM	0.986	> 4 µM	0.989	> 1.02 µM	0.989	> 2.56 µM	0.986	> 10 µM	0.723	0.532 µM	0.974	> 10 µM
EJM (lymphoid neoplasm, semi-adherent)	0.185	0.00452 µM	0.536	0.79 µM	0.985	> 2.5 µM	0.962	> 5 µM	0.859	12.6 µM	0.822	4.68 µM	0.723	3.8 µM	0.984	> 20 µM	0.992	> 5 µM	0.992	> 4 µM	0.992	> 1.02 µM	0.992	> 2.56 µM	0.982	> 10 µM	0.975	> 2 µM	0.973	> 10 µM
ES1 (Ewing sarcoma, adherent)	0.074	< 0.002 µM	0.351	0.249 µM	0.913	> 2.5 µM	0.919	> 5 µM	0.598	2.3 µM	0.72	2.6 µM	0.674	3.03 µM	0.985	> 20 µM	0.972	> 5 µM	0.95	> 4 µM	0.985	> 1.02 µM	0.986	> 2.56 µM	0.815	5.37 µM	0.275	0.029 µM	0.982	> 10 µM
ES5 (Ewing sarcoma, adherent)	0.545	0.0433 µM	0.44	0.429 µM	0.922	> 2.5 µM	0.919	> 5 µM	0.554	1.8 µM	0.752	3.75 µM	0.697	3.93 µM	0.982	> 20 µM	0.957	> 5 µM	0.965	> 4 µM	0.979	> 1.02 µM	0.983	> 2.56 µM	0.926	> 10 µM	0.577	0.21 µM	0.93	> 10 µM
ES6 (Ewing sarcoma, adherent)	0.16	0.00213 µM	0.799	6.31 µM	0.69	0.61 µM	0.948	> 5 µM	0.745	7.58 µM	0.677	2.21 µM	0.624	2.39 µM	0.98	> 20 µM	0.982	> 5 µM	0.88	> 4 µM	0.978	> 1.02 µM	0.946	> 2.56 µM	0.886	> 10 µM	0.676	0.439 µM	0.969	> 10 µM
ES7 (Ewing sarcoma, adherent)	0.346	0.0118 µM	0.374	0.285 µM	0.887	> 2.5 µM	0.767	1.91 µM	0.773	8 µM	0.767	3.83 µM	0.632	2.34 µM	0.961	> 20 µM	0.983	> 5 µM	0.919	> 4 µM	0.963	> 1.02 µM	0.98	> 2.56 µM	0.937	> 10 µM	0.621	0.271 µM	0.887	> 10 µM
ES-2 (ovary, adherent)	0.555	0.0445 µM	0.882	8.56 µM	0.977	> 2.5 µM	0.955	> 5 µM	0.944	> 20 µM	0.601	1.14 µM	0.858	10.7 µM	0.944	> 20 µM	0.985	> 5 µM	0.916	> 4 µM	0.988	> 1.02 µM	0.985	> 2.56 µM	0.988	> 10 µM	0.562	0.18 µM	0.991	> 10 µM
ETK-1 (biliary tract, adherent)	0.191	0.00329 µM	0.803	5.9 µM	0.971	> 2.5 µM	0.861	> 5 µM	0.858	> 20 µM	0.801	5.64 µM	0.905	> 16 µM	0.983	> 20 µM	0.961	> 5 µM	0.875	> 4 µM	0.948	> 1.02 µM	0.982	> 2.56 µM	0.913	> 10 µM	0.82	1.35 µM	0.976	> 10 µM

The IC50 comes from the fitted curve, where viability falls to half of the control; fits outside the tested doses are given as limits. The AUC spans the tested range (256-fold, ending at the top dose) of the same fit; it is 1 without any effect and falls as sensitivity rises. For part of these data: Where the top dose is marked as inferred, it comes from the curve model; the source does not state it. For part of these data: Drugs with an entry number were screened twice under separate entries, and the two screens often disagree.
